Measurements taken from PubChem BioAssay (NCATS).
Inconclusive means that the source gave no clear call. Such entries were picked first, then a sample of the others. For some of these results: Where the call is inconclusive, the potency comes from a doubtful curve fit. Activity calls are given as the source filed them. Unless noted, calls follow the shape of the dose curve; as a rule, active = well fitted curve in the direction sought with a large enough effect; inconclusive = small, poorly fitted or top-dose-only effect, or another doubt; inactive = no such curve, though single readings can be large; an effect the other way counts as inactive or inconclusive.

Assays:
[1] = qHTS of pediatric cancer cell lines to identify multiple opportunities for drug repurposing: Primary screen for DAOY cells (AID 1347090); settings: DAOY medulloblastoma viability, CellTiter-Glo luminescence, 48 h; activity change, negative = cytotoxic: at 46 µM (top of the series); also: nearly all actives have a fitted effect of over 55% in size
Outline: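 Cell viability, CellTiter-Glo luminescence; 500-1,000 cells/well, 8- or 11-point titration, 48 h compound exposure at 37 degrees C, 5% CO2. Controls: DMSO neutral, bortezomib 2.3 µM final as positive.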

[2] = qHTS of pediatric cancer cell lines to identify multiple opportunities for drug repurposing: Primary screen for SK-N-SH cells (AID 1347098); also: nearly all actives have a fitted effect of over 65% in size
Outline: (§1)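 Cells (500-1,000/well) rested 5 h, then received compounds for 48 h; metabolically active cells were measured by CellTiter-Glo luminescence. Final concentrations spanned up to 46 µM (MIPE, 11-point) or 0.59 nM-46 µM (NPC, 8-point) in primary screens, 11-point in follow-ups.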

[3] = qHTS of pediatric cancer cell lines to identify multiple opportunities for drug repurposing: Primary screen for NB1643 cells (AID 1347099); also: nearly all actives have a fitted effect of over 50% in size
Outline: (§2)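 CRCs from 8- or 11-point titrations (lowest final 0.59 nM NPC, 0.78 nM MIPE). Cell viability: CellTiter-Glo after 48 h incubation, 15 min room-temperature development, luminescence imaging.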

[4] = qHTS of pediatric cancer cell lines to identify multiple opportunities for drug repurposing: Primary screen for LAN-5 cells (AID 1347100)
Outline: as §1

[5] = qHTS of pediatric cancer cell lines to identify multiple opportunities for drug repurposing: Primary screen for BT-12 cells (AID 1347101); also: nearly all actives have a fitted effect of over 25% in size
Outline: as §1

MCC-26 = assay: qHTS assay to identify novel small-molecules to repurpose for Merkel cell carcinoma treatment (AID 1296009); settings: MCC and control cell lines, CellTiter-Glo viability, 72 h; activity change, negative = cytotoxicity: at 46 µM (top of the series); also: nearly all actives have a fitted effect of over 60% in size
Outline: (§3)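 Cell viability measured by CellTiter-Glo following 72 hr compound treatment at 37 degree celsius, with NPC and MIPE libraries tested in 8- and 11-point concentration series.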

MKL-2 = assay: as above; settings: MCC and control cell lines, CellTiter-Glo viability, 72 h; activity change, negative = cytotoxicity: at 46 µM (top of the series)
Outline: as §3

WaGa = assay: as above; settings: MCC and control cell lines, CellTiter-Glo viability, 72 h; series mostly up to 46 µM
Outline: as §3

[6] = NS1 protein of Zika virus - qHTS assay to identify small molecule inhibitors in human HEK 293 cells (AID 1347053); also: nearly all actives have a fitted effect of over 55% in size
Outline: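 TR-FRET signal from two anti-ZIKV NS1 antibodies quantified NS1 in HEK 293 cells 24 h after MR766 infection at MOI = 0.5; compounds were added 1 h before virus. Uninfected cells and infected cells defined the NS1 normalization range.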

[7] = qHTS of pediatric cancer cell lines to identify multiple opportunities for drug repurposing: Primary screen for OHS-50 cells (AID 1347103); also: nearly all actives have a fitted effect of over 40% in size
Outline: as §1

[8] = Primary qHTS for small molecule stabilizers of the endoplasmic reticulum resident proteome: Secreted ER Calcium Modulated Protein (SERCaMP) assay (AID 1508630); settings: SH-SY5Y GLuc-SERCaMP (Gaussia luciferase released on ER calcium loss) secretion, thapsigargin, luminescence; activity change, negative = inhibition: at 38.4 µM (top of the series) unless noted
Outline: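 The SH-SY5Y reporter protocol was run at 3 concentrations up to 38.3 uM (primary) or 11 concentrations (follow-up): 16 h compound, 100 nM thapsigargin for 4 h, then extracellular luciferase luminescence.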

[9] = target: Cytochrome P450 2C9 (Homo sapiens) (UniProt P11712); assay: Cytochrome P450 family 2 subfamily C member 9 (CYP2C9) small molecule antagonists: luciferase biochemical (cell-free) qHTS assay (AID 1645842; active = well fitted curve in the direction sought with a large enough effect in the repeat runs; inconclusive = weak or mixed curves; inactive = no such curve, though single readings can be large; an effect the other way counts as inactive or inconclusive; also: nearly all actives have a fitted effect of over 55% in size)
Outline: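 P450-Glo CYP2C9 system: proluciferin substrate with enzyme in mix containing 0.4% BSA, 10 min at room temperature, then NADPH regeneration solution added and incubated 1 h at 37C. Detection reagent stopped reaction; luminescence read after 20 min as RLU.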

[10] = qHTS to identify inhibitors of the type 1 interferon - major histocompatibility complex class I in skeletal muscle: primary screen against the NCATS Mechanism Interrogation Plate v5.0 (MIPE) Libary (AID 1347411); settings: iHSKM cells + IFN-b, HiBiT-tagged MHC-I luminescence, 24 h; activity change, negative = inhibition: at 45.8 µM (top of the series); also: nearly all actives have a fitted effect of over 65% in size
Outline: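 IFN-beta-driven (4 ng/ml) HLA-B-HiBit expression in CRISPR-tagged C25cl48 myoblasts; compounds 11-pt, 1:3, max 46 uM, 24 hr exposure; lytic NanoLuc complementation luminescence.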

[11] = Quantitative High-Throughput drug screen in 47 multiple myeloma cell lines against the NCATS MIPE library collection: Karpas417_ECACC cell viability assay (AID 1918961); settings: Karpas417 myeloma viability, CellTiter-Glo ATP luminescence, 48 h; viability (% of DMSO): at 45.8 µM (top of the series)
Outline: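 Inhibition of cell viability is measured here. Each line was plated at 500 cells per well, treated with MIPE 4.0 drugs, kept 48 hours at 37C, then assayed for ATP content by CellTiter-Glo luminescence.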

[12] = qHTS for identification of novel therapeutic agents for treatment of microphthalmiaassociated transcription factor (MiT) renal cell carcinoma (RCC) (AID 1963991; calls by dose curve); settings: TFE3-RCC UOK109 viability, CellTiter-Glo, 48 h; active = Z-AUC below -0.8 in all three lines
Outline: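 UOK109/UOK124/UOK145 (TFE3 fusions, three partners); 500 cells/well; MIPE v4.0, 1912 cpds, 11 conc.; 48 h, 37 C; CellTiter-Glo, 15 min RT; lum. Norm.: DMSO 100%, empty 0%.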

JEG-3 = assay: Primary qHTS to identify gynecologic anti-cancer compounds using libraries of approved drugs and bioactive compounds (AID 1345084); settings: Gynecologic cancer cell panel viability, ATPlite luminescence, 48 h; series mostly up to 57.5 µM; also: nearly all actives have a fitted effect of over 55% in size
Outline: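 48 h compound exposure at 37 C, 5% CO2; five-point qHTS. ATPlite luminescence readout of cell ATP.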

[13] = qHTS of pediatric cancer cell lines to identify multiple opportunities for drug repurposing: Primary screen for BT-37 cells (AID 1347094)
Outline: as §2

[14] = qHTS of pediatric cancer cell lines to identify multiple opportunities for drug repurposing: Primary screen for NB-EBc1 cells (AID 1347095)
Outline: as §2

[15] = Quantitative High-Throughput drug screen in 47 multiple myeloma cell lines against the NCATS MIPE library collection: KMS20_JCRB cell viability assay (AID 1918973); settings: CellTiter-Glo ATP, 48 h; viability (% of DMSO): at 45.8 µM (top of the series); also: nearly all actives have a fitted effect of over 45% in size
Outline: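 Viability readout: CellTiter-Glo luminescence following 5 min room-temperature incubation with reagent. Prior exposure: 48 h, 37C, humidified 5% CO2, 500 cells per well.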

Measured: Potency
Potency is read from the fitted curve at half-maximal effect; tags tell the direction and shape of the fitted curve.

Sequence of UniProt P11712 (P11712 whole entry, looked up): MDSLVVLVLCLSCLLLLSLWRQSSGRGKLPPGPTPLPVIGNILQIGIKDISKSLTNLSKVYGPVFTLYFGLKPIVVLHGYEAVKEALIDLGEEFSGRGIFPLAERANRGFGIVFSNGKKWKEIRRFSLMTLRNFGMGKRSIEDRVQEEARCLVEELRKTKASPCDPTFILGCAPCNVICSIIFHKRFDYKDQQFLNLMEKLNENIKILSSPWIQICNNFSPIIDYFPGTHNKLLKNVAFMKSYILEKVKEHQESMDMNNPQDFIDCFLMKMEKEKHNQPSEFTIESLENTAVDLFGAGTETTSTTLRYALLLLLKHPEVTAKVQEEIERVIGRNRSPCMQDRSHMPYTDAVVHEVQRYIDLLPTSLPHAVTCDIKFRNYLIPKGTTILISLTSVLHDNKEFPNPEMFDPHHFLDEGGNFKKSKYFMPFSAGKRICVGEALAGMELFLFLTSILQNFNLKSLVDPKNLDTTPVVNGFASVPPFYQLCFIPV

CN1CC[C@H](c2c(O)cc(O)c3c(=O)cc(-c4ccccc4Cl)oc23)[C@H](O)C1
active: [1] 0.531 µM | [5] 0.276 µM
inconclusive: [2] 0.137 µM [cytotoxic, full curve] | [3] 1.19 µM [cytotoxic, full curve, poor fit] | [4] 15 µM [cytotoxic, partial curve, poor fit] | MCC-26 = 0.473 µM [inhibitor, full curve] | MKL-2 = 0.596 µM [inhibitor, full curve] | WaGa 0.422 µM [inhibitor, full curve]

NC(N)=N/N=C/c1c(Cl)cccc1Cl
inconclusive: [2] 15.4 µM [cytotoxic, single point] | [5] 19.5 µM [cytotoxic, partial curve, poor fit] | [7] 24.6 µM [cytotoxic, single point] | WaGa 29.9 µM [inhibitor, single point]
inactive: [6]

CCOC(=O)OC(C)OC(=O)[C@@H]1N2C(=O)[C@@H](NC(=O)[C@H](N)c3ccccc3)[C@H]2SC1(C)C (some centres not stated)
inactive: [4] | [7]
inconclusive: [8] 2.51 µM [inhibitor, full curve, poor fit]

CS(=O)(=O)NCC1CCC(Nc2nc3c(s2)CCSc2ccccc2-3)CC1 (configuration not stated)
inconclusive: [9] 26.8 µM [inhibitor, single point]

O=C(O)[C@@H]1[C@H]2C[C@H]3c4[nH]c5ccccc5c4CCN3C[C@@H]2CC[C@@H]1O
inconclusive: [4] 26.6 µM [cytotoxic, single point]

O=C(Nc1cn[nH]c1-c1nc2ccc(CN3CCOCC3)cc2[nH]1)NC1CC1
active: [6] 9.35 µM | [3] 5.26 µM | [7] 1.53 µM | [10] 3.3 µM
inconclusive: [9] 19 µM [inhibitor, partial curve] | [11] 1.87 µM [cytotoxic, full curve, poor fit] | [12] 1.66 µM [falling, partial curve] | JEG-3 = 31.6 µM [cytotoxic, single point]

O=C(NCCc1c[nH]c2ccccc12)c1cccnc1
inactive: [1] | [2] | [8] | MKL-2
inconclusive: [6] 3.16 µM [inhibitor, single point] | [9] 15.5 µM [inhibitor, partial curve]

C#C[C@]1(OC(C)=O)CC[C@H]2[C@@H]3CCC4=C/C(=N/O)CC[C@@H]4[C@H]3CC[C@@]21CC
inconclusive: [6] 3.98 µM [inhibitor, full curve, poor fit] | [1] 33.5 µM [cytotoxic, single point] | [13] 34.7 µM [cytotoxic, single point] | [14] 33.5 µM [cytotoxic, single point] | [2] 43.3 µM [cytotoxic, single point] | [3] 26.6 µM [cytotoxic, single point] | [7] 24.6 µM [cytotoxic, partial curve] | MKL-2 = 33.5 µM [inhibitor, single point] | WaGa 33.5 µM [inhibitor, single point]

C[C@@H](Oc1ccc2[nH]nc(C=Cc3cnn(CCO)c3)c2c1)c1c(Cl)cncc1Cl
active: [13] 24.3 µM | [4] 4.18 µM | [5] 17.2 µM | [15] 4.18 µM | MCC-26 = 16.6 µM
inconclusive: [1] 29.6 µM [cytotoxic, single point] | [3] 1.48 µM [cytotoxic, full curve] | [12] 20.9 µM [falling, partial curve]
inactive: [6] | [11] | MKL-2
